# Test results taken from PubChem BioAssay AID720709 (National Center for Advancing Translational Sciences (NCATS), 2013).
# The whole screen tested about 360,000 compounds, of which about 520 (0.14%) were called active. This list was built around the results that the source calls inconclusive (neither active nor inactive); the mix of calls is not that of the screen. Calls follow the shape of the dose curve; as a rule, active = well fitted inhibition curve with a large enough effect; inconclusive = small, poorly fitted or top-dose-only effect; inactive = no such curve, though single readings can be large or run the other way. No potency is given beside an inconclusive call; the fits are too rough.
# Biological target: Rap guanine nucleotide exchange factor 3 (Homo sapiens) (UniProt O95398)
# Chain of UniProt O95398 (O95398 whole entry, looked up): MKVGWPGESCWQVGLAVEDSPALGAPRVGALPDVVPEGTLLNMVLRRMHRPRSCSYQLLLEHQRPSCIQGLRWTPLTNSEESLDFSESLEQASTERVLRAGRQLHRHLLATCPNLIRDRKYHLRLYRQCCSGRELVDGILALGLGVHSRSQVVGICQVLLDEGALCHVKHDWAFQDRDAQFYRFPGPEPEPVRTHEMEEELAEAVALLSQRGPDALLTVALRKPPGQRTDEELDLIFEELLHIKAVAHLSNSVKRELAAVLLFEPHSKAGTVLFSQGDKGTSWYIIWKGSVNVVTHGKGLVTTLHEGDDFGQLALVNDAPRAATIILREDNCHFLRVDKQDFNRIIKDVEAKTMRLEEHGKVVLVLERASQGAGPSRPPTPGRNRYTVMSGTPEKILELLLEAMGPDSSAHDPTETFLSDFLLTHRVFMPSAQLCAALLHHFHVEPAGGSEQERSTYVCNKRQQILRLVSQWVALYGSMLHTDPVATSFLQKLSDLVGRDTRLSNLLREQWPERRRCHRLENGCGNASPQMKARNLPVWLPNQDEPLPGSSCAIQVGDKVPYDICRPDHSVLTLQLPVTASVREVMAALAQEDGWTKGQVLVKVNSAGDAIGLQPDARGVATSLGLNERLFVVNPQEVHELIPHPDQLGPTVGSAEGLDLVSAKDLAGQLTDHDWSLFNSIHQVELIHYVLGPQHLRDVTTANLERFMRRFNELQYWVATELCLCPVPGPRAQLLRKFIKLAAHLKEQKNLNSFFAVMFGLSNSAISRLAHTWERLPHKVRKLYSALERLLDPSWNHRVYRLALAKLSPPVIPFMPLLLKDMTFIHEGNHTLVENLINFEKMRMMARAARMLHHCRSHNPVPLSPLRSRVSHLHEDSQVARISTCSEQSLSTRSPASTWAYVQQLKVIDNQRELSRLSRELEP
# Assay: qHTS for Antagonist of cAMP-regulated guanine nucleotide exchange factor 3 (EPAC1): primary screen; also: nearly all actives have a fitted effect of over 50% in size;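 as to activity change, negative = inhibition: plate controls were vehicle for no effect and positive control for full effect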
# Conditions: EPAC1 GEF assay, Rap1b-BODIPY-GDP exchange fluorescence; activity change, negative = inhibition: at 115 µM (top of the series)
# Potency is read from the fitted curve at half-maximal effect; tags tell the direction and shape of the fitted curve.
Compound,Potency,"activity change, negative = inhibition"
Cc1ccc(C(=O)N/C(=C\c2ccccc2F)c2nc(=S)[nH][nH]2)cc1,"inconclusive [inhibitor, single point]",
O=C(NC1CCN(C(=O)Nc2cccc(Cl)c2)CC1)c1ccco1,,inconclusive: -19.9% [inhibitor]
Cc1cccc(-n2c(O)c(C=Nc3ccccc3-c3n[nH]c(=S)[nH]c3=O)c3ccccc3c2=O)n1,,inactive: -22.5%
CC(C)c1ccc(C(=O)N2CCCCC2c2cc(C(=O)Nc3ccncc3)no2)cc1 (stereo not given),"inconclusive [inhibitor, partial curve]",
COc1cc(/C=C2/C(=N)N3N=C(C)SC3=NC2=O)ccc1OS(=O)(=O)c1ccc(C)cc1,"inconclusive [inhibitor, single point]",
COc1nc2ccccc2nc1OC,"inconclusive [inhibitor, partial curve]",
Cc1ccc(C(c2cc(Cl)c3cccnc3c2O)N2CCN(C)CC2)cc1 (stereo not given),"inconclusive [inhibitor, partial curve]",
CC(=O)OCC1=C(C(=O)O)N2C(=O)C(NC(=O)COc3ccc(F)cc3)C2SC1 (stereo not given),"inconclusive [inhibitor, partial curve]",
Oc1cccc(CN2CCOCC2)c1O,"inconclusive [inhibitor, partial curve]",
CC(C)=CCc1c(-c2ccc(O)cc2O)oc2c3c(cc(O)c2c1=O)OC(C)(C)C=C3,"inconclusive [inhibitor, partial curve]",
COc1ccc2cc(CCNC(=O)c3ccco3)c(=O)[nH]c2c1,,inactive: 14.9%
COc1cc(NC(=O)c2cccc([N+](=O)[O-])c2)ccc1NC(=O)c1ccco1,"inconclusive [inhibitor, partial curve]",
O=C(O)/C=C/C(=O)Nc1ccc(C2(c3ccc(NC(=O)/C=C/C(=O)O)cc3)c3ccccc3-c3ccccc32)cc1,"inconclusive [inhibitor, partial curve]",
CCCN(CCC)Cc1cc(=O)oc2cc(OC)ccc12,,inactive: -19%
CC(C)c1ccc(O)c(NC(=S)NC(=O)c2ccc3c(c2)OCO3)c1,,inactive: 4.61%
O=C(NC(c1ccccc1)c1ccccc1)C1CCCC1,"inconclusive [inhibitor, full curve]",
O=S1(=O)CCC(NC(=S)SCCOc2ccccc2)C1 (stereo not given),"inconclusive [inhibitor, single point]",
CC(=O)Nc1ccc(S(=O)(=O)N(C)c2ccc(OCC(=O)NCCc3ccccc3F)cc2)cc1,"inconclusive [inhibitor, full curve, poor fit]",
Cc1ccc(SCCC(=O)Nc2ccccc2C(=O)NC2CCCCC2)cc1,"inconclusive [inhibitor, partial curve]",
COc1ccc(N2CCN(C(=O)c3ccccc3NC(=O)C3=C(C)OCCS3)CC2)cc1,"inconclusive [inhibitor, full curve, poor fit]",
CCNC(=O)n1cc(-n2cncn2)c(-c2ccccc2)n1,"inconclusive [inhibitor, full curve, poor fit]",
Cc1ccc(NC(=O)c2ccc(Cl)c(S(=O)(=O)N3CCc4ccccc43)c2)nc1,"inconclusive [inhibitor, partial curve]",

Compound,Potency,"activity change, negative = inhibition"
Cc1ccc(C)c(NC(=O)CSc2nnc(-c3cc(C)[nH]n3)n2N)c1,"inconclusive [inhibitor, full curve, poor fit]",
Cn1cc(-c2coc3c(C(=O)Nc4ccccc4)cccc23)cn1,"inconclusive [inhibitor, partial curve]",
CN1CCN(Cc2c(O)ccc3occ(C(=O)c4ccccc4)c23)CC1,,inactive: 5.64%
COc1ccc(/C=C2/SC(=S)N(CCCC(=O)Nc3ccccc3C(=O)O)C2=O)cc1,"inconclusive [inhibitor, partial curve]",
O=C(Nc1cccc(NC(=O)c2ccccc2Cl)c1)c1ccc([N+](=O)[O-])o1,"inconclusive [inhibitor, partial curve]",
CC(OC(=O)c1cccc(-n2cnnn2)c1)C(=O)N(C)c1ccccc1 (stereo not given),"inconclusive [inhibitor, full curve, poor fit]",
COc1ccc(NC(=O)CN2CCN(c3ccccn3)CC2)cc1Cl,,inactive: 28.3%
Cc1ccc(N/N=C/c2cccnc2)cc1,"inconclusive [inhibitor, single point]",
C/C(=N\NC(=O)C(c1ccccc1)c1ccccc1)c1ccc(O)cc1,"inconclusive [inhibitor, partial curve, poor fit]",
Cc1ccc(-n2c(C)nc3ccsc3c2=O)cc1,,inactive: 13.5%
O=c1c(-c2ccc(F)cc2)[n+]([O-])c2ccccc2n1OCc1ccccn1,"inconclusive [inhibitor, partial curve]",
Cn1cccc1-c1nc2ccc(NC(=O)c3ccc([N+](=O)[O-])cc3)cc2[nH]1,,inactive: 2.54%
CCOC(=O)c1c(CC(C)C)csc1NC(=O)COC(=O)c1ccc(O)cc1,"inconclusive [inhibitor, single point]",
CCC(C)/C(C)=N/NC(=O)c1cn(-c2ccccc2)nc1-c1ccccc1 (stereo not given),"inconclusive [inhibitor, full curve, poor fit]",
COc1cccc(N=CNc2cccc(OC)c2)c1,,inactive: 4.76%
COc1ccc(-c2nc(CN3CCN(c4ccccc4OC)CC3)c(C)o2)cc1,"inconclusive [inhibitor, partial curve, poor fit]",
Cc1ccc(-n2c(C)cc(/C=C(\C#N)C(=O)NCC3CCCO3)c2C)cc1 (stereo not given),"inconclusive [inhibitor, single point]",
Cc1ccc(OCC(=O)Nc2nnc(S(=O)(=O)N3CCC(C)CC3)s2)cc1,"inconclusive [inhibitor, partial curve]",
COCCN=C1NN=C(c2ccc(C)c([N+](=O)[O-])c2)CS1,,inactive: 11.7%
COC(C(=O)Nc1ccnn1C1CCN(C(=O)c2ccc(C=O)cc2)CC1)c1ccccc1 (stereo not given),"inconclusive [inhibitor, full curve]",
COC(=O)c1ccc(-n2nnnc2SCC(=O)Nc2ccccc2C(=O)OC)cc1,"inconclusive [inhibitor, full curve]",
Cc1ccc(S(=O)(=O)NCCC(=O)N2CCN(c3cccc(Cl)c3)CC2)cc1C,"inconclusive [inhibitor, partial curve, poor fit]",

Compound,Potency,"activity change, negative = inhibition"
NC(=O)C1CCN(CC(=O)Nc2cccnc2Cl)CC1,,inactive: -15.1%
O=C(NCc1ccncc1)C(=O)N/N=C/c1ccc(OCc2ccccc2)cc1,"inconclusive [inhibitor, single point]",
CCN(C(=O)CN1CCN(c2ccccc2)CC1)c1c(N)n(Cc2ccccc2)c(=O)[nH]c1=O,"inconclusive [inhibitor, single point]",
CCOc1ccc(-c2csc(NC(=O)CSC3=NC(=O)CN3C(C)=O)n2)c2ccccc12,"inconclusive [inhibitor, partial curve, poor fit]",
CCCCN=C1NN=C(c2ccc(C)c(C)c2)CS1,,inactive: -9.17%
Cc1ccc(NC(=O)C2CCCN2S(=O)(=O)c2ccc3c(c2)n(C)c(=O)c(=O)n3C)cc1 (stereo not given),"inconclusive [inhibitor, partial curve]",
O=C(c1ccco1)N1CCN(C(=O)c2cc3c(s2)-c2ccccc2OC3)CC1,"inconclusive [inhibitor, single point]",
BrC(=C\c1ccccc1)/C=N/Nc1nc(N2CCOCC2)nc(N2CCOCC2)n1,"inconclusive [inhibitor, partial curve]",
COc1ccc2c(c1)c(=O)c(C(=O)c1ccc(Cl)cc1)cn2CC(=O)Nc1ccc(F)cc1,"inconclusive [inhibitor, partial curve]",
CSc1cccc(CN2CCCC(C(=O)Nc3cccc(-n4cccn4)c3)C2)c1 (stereo not given),,inconclusive: -13% [inhibitor]
CC(C)CN1C(=O)/C(=C/c2ccco2)NC1=S,,inactive: -5.31%
CN(C)c1ccc2c(O)cc(=O)n(C)c2c1,,inactive: 0.33%
COC(=O)c1cc(C(=O)c2cc(Cl)ccc2O)coc1=N,,inactive: 3.66%
O=c1c2c(nc3cc(-c4ccc(Br)cc4)[nH]n13)CCCC2,"inconclusive [inhibitor, full curve, poor fit]",
Cc1ccc(S(=O)(=O)N2[C@@H](c3cccc(Cl)c3)C(C(=O)O)=CC[C@H]2c2ccc(Cl)c(Cl)c2)cc1,"inconclusive [inhibitor, partial curve]",
COCCCNC(=O)c1c(N)n(-c2cccc(S(N)(=O)=O)c2)c2nc3ccccc3nc12,"inconclusive [inhibitor, single point]",
CCOc1cc(/C=N/NC(=O)CSc2nncn2C)ccc1OC(=O)c1ccc(Cl)cc1,"inconclusive [inhibitor, partial curve]",
CCOC(=O)C(C)(C)Sc1nc2c(cnn2-c2ccc(C)cc2)c(=O)[nH]1,"inconclusive [inhibitor, single point]",
CCN1C(=NCCc2ccc([N+](=O)[O-])cc2)N[C@@H](c2ccccc2)[C@H](C(=O)OC)[C@H]1C,,inactive: -11.9%
Cc1cc(O)c2c(-c3ccccc3)cc(=O)oc2c1,"inconclusive [inhibitor, full curve, poor fit]",
Cc1ccc(S(=O)(=O)Oc2cccc(/C=N/n3cnnc3)c2)cc1,,inactive: 1.51%
